Source: article PMC4336329 (PLoS ONE, 2015)
The whole screen tested about 310,000 compounds, of which about 14,000 (4.5%) showed an effect of 50% or more. The effect is printed as a negative number. The list shows a part of the results.

Target: human ether-à-go-go-related gene (hERG) potassium channel (human, UniProt Q12809)
Experiment: primary screen, population patch clamp on CHO cells stably expressing hERG
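Also: peak tail current of the secondary pulse compared with the same well before compound.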

human ether-à-go-go-related gene (hERG) potassium channel, sequence (Q12809 whole entry, looked up): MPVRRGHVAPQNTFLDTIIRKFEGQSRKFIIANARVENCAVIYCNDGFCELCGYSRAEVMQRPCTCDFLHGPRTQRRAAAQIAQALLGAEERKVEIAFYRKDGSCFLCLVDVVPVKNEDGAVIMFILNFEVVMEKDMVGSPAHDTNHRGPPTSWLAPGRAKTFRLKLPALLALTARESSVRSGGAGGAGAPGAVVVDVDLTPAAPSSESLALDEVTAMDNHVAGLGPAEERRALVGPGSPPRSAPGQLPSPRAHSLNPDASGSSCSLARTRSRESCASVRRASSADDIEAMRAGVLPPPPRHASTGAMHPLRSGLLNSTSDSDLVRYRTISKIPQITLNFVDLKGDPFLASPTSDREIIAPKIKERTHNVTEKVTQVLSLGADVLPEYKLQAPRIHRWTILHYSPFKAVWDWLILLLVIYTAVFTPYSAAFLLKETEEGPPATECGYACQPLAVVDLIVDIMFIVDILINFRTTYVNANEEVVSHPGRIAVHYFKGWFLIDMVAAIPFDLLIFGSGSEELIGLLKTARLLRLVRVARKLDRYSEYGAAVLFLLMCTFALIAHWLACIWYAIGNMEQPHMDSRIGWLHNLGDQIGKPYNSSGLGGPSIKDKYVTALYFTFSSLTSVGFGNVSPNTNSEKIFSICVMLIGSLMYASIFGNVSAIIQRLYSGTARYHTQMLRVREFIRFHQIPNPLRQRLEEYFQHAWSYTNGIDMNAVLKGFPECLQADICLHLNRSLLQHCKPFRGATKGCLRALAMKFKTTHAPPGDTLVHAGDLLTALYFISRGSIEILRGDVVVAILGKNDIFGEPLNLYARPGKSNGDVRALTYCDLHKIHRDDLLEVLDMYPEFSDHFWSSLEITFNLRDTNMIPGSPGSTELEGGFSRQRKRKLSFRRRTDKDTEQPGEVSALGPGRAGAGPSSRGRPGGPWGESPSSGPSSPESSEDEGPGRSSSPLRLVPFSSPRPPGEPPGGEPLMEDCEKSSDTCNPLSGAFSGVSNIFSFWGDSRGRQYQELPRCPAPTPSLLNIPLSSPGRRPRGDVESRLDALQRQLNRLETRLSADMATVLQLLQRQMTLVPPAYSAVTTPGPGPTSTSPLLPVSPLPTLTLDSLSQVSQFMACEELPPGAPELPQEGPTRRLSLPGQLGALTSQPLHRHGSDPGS

SMILES	hERG current change (%, negative = inhibition) at 10uM
Cc1ccc(NC(=O)Cn2cc(C(F)(F)F)cc(Cl)c2=O)cc1S(=O)(=O)N1CCCCC1	-32.9%
COc1cccc(OCC(O)CN2CC(C)CC(C)C2)c1.Cl (centres unmarked)	-13.5%
CCCCC(CC)CNC(=O)c1ccc2c(c1)OCO2 (centres unmarked)	-9.28%
COCCCNC(=O)C1Cc2cc(S(=O)(=O)N3CCCC3)ccc2N1C(C)=O (centres unmarked)	14%
CCC(C)n1c(SC(C)C#N)nc2ccccc2c1=O (centres unmarked)	-0.455%
CCCc1nn(CCc2ccccn2)c(N)c1CC	-4.32%
CC(C)CN(CC(C)C)C(=O)CN1C(=O)NC2(CCc3ccccc3C2)C1=O (centres unmarked)	-8.61%
COc1cc(Br)c(C(C)NC(=O)c2ccccc2)cc1OC (centres unmarked)	14.1%
Cc1cccc(N2CCN(C(=O)n3ccnc3)CC2)c1C	-26.2%
CC(C)(C)c1nc2ccccc2c2nnc(SCC(=O)Nc3nccs3)n12	7.66%
Cc1nnc(Sc2cc(C(=O)NC3CC3)c3ccccc3n2)s1	-20.7%
CCN(CC)C1CCN(C(=O)c2ccc(OC3CCN(CCc4ccccc4)CC3)cc2)C1 (centres unmarked)	2.06%
CC12CN3C(O)C(C)(C1)CC(C)(C2)C3O (centres unmarked)	2.99%
CC(=C/C(=O)O)/C=C/c1ccc(Cl)o1	8.64%
Cc1cc(C(=O)N/N=C/c2ccccc2Br)no1	-2.86%
O=C1NCCN(Cc2cccc(Oc3ccccc3)c2)C1CC(=O)N1CCCO1 (centres unmarked)	-7.51%
C=CCNC(=O)c1cc(-c2cccnc2)nc2ccccc12	-34.7%
CCOC(=O)CSc1snnc1C	26.2%
O=C(COC(=O)c1ccccc1C(=O)N1CCN(c2ccc(F)cc2)CC1)NCc1ccccc1	-73.6%
CCCCS(=O)CC(COc1ccc(Cl)cc1)OC(=O)c1ccccc1 (centres unmarked)	-56.3%
CC(=O)c1ccc(NC(=O)Cc2ccsc2)cc1	5.98%
CCOC(=O)c1cnn(-c2ccccc2)c1NC(=O)c1ccccc1C	-7.29%

SMILES	hERG current change (%, negative = inhibition) at 10uM
Cc1cccc(OCC(=O)N2CCC(N3CCOCC3)CC2)c1	0.537%
CCN(CC)CCSc1nnc2c3cc(C)ccc3n(Cc3ccccc3)c2n1	-79.1%
Cc1cccc(NC(=O)Cn2cnc3ccc(S(=O)(=O)N4CCC(C)CC4)cc3c2=O)n1	-31.5%
COc1ccc(OC)c(NC(=O)C2CC(=O)N(c3ccccc3)C2)c1 (centres unmarked)	5.86%
COc1ccc(CCNC(=O)Cn2c(=O)n(-c3ccc(F)cc3F)c(=O)c3sccc32)cc1OC	-0.593%
O=C(Cc1cccc(NC(=O)C2CCCN(C(=O)C3CCC3)C2)c1)Nc1cccc(C(=O)N2CCCC2)c1 (centres unmarked)	7.74%
CCOC(=O)Nc1cccc(OCC(=O)Nc2ccccc2OCC)c1	-11.4%
COc1cc2c(cc1OC)C(COc1cccc(C(F)(F)F)c1)NCC2 (centres unmarked)	-31%
CCOc1ccc(CCNC(=O)c2ccc(CS(=O)Cc3ccc(Cl)cc3)o2)cc1OCC (centres unmarked)	-24.1%
C/C(=N/Oc1nc(C)cc(C)n1)c1ccc(F)cc1	-13.6%
COc1cccc(C(=O)NCc2n[nH]c(=S)n2-c2cccc(C)c2)c1	22.6%
CSc1ccc(Cl)c(C(=O)NCCOc2ccccc2)c1	-3.32%
CN(C)c1nc2c(c(N)nn2-c2ccc(Cl)cc2)c(=O)o1	-4.18%
COc1ccc2[nH]c(=O)c(CN(C(=O)C3CCCO3)c3ccc(C)c(C)c3)cc2c1 (centres unmarked)	-8.86%
Cc1cc(C(=O)N(CCC#N)Cc2cccs2)no1	14.1%
CCCCc1c(C)c2ccc(OC)c(/C(C)=N\O)c2oc1=O	-6.55%
CCOc1ccc(C2C([N+](=O)[O-])=C(C)N(C)C(=O)N2C)cc1OC (centres unmarked)	-5.41%
COc1ccc2c(c1OC)C(=O)OC2N1C(=O)CC[C@H]1C(=O)Nc1ccc2c(c1)OCO2 (some centres unmarked)	2.27%
O=C(Nc1ccc(Cl)cc1)c1nc[nH]c1C(=O)NCc1ccccc1	16.5%
COc1ccc(NC(=O)CC2C(=O)N(C)C(=S)N2Cc2ccco2)cc1 (centres unmarked)	-7.55%
COC(=O)C1=C(C)NC(=O)C1(NS(=O)(=O)c1ccc(NC(C)=O)cc1)C(F)(F)F (centres unmarked)	6.65%
CCOC(=O)N1CCC(NC(=O)CN(c2ccc(C(C)C)cc2)S(=O)(=O)c2c(C)nn(C)c2C)CC1	-10.3%

SMILES	hERG current change (%, negative = inhibition) at 10uM
COc1ccc(/C=N/Nc2ncc(-c3ccccc3)cn2)c(OC)c1	11.4%
CCOc1ccc(/C(C)=N/NC(=O)c2nnn(-c3nonc3N)c2-c2cccs2)cc1	20%
COc1ccc(CNC(=O)C2CCN(S(=O)(=O)c3ccc4c(c3)CC(C)N4C(=O)C3CC3)CC2)cc1 (centres unmarked)	-4.01%
Cc1ccc(-c2cc(=O)c3ccc(Cl)cc3[nH]2)cc1	8.8%
COc1ccc(NC(=O)/C(=C/c2ccc(OC(C)=O)c(OC)c2)NC(C)=O)cc1	1.88%
Cc1cccc([C@@H]2[C@@H]3C(=O)N(Cc4ccccc4)C(=O)[C@@H]3[C@]3(Cc4ccc(Cl)cc4)C(=O)N(c4cccc(Cl)c4)C(=O)N23)c1	5.6%
Cc1noc(C)c1COc1ccccc1C(=O)N1CCN(S(=O)(=O)c2ccccc2C(F)(F)F)CC1	-21.2%
CCOc1nc(NC2CCCCC2)nc(NC(C)(C)C)n1	-25.4%
Cc1oc2c(CN3CCCCC3)c(O)ccc2c(=O)c1-c1ccc(Cl)cc1	-24%
NCC(=O)c1cccc2ccc[n+]([O-])c12	26.6%
COc1ccc(-c2csc(Cc3nnc(N4CCOCC4)n3-c3ccccc3)n2)cc1OC	-1.84%
O=[N+]([O-])c1ccc(-c2nc(NCc3ccccc3)c3ccccc3n2)cc1	21.2%
CCOC(=O)C1NN=C(C(=O)c2ccccc2)C1c1ccccc1 (centres unmarked)	-11.5%
CC[C@H](C)[C@@H](C(=O)NCCCCCCCCCCC(=O)N1CCN(C(=O)OC(C)(C)C)CC1)n1cc(CCCCCNC(=O)OC(C)(C)C)nn1	0.865%
CC(=O)c1cnc2scnn2c1=O	11.4%
O=C(Nc1ccccc1)N1CC=C(c2ccccc2)CC1	-6.6%
O=C(OCC(=O)N(C1CCCCC1)C1CCCCC1)c1cnccn1	-9.03%
COC1CCN(Cc2cn(Cc3ccccc3)nc2-c2cc3ccccc3o2)CC1	-71.9%
Cl.NCCCCCc1nnc(SC/C=C/c2ccccc2)o1	-20%
O=C(O)c1ccc2c(=O)n(-c3ccccc3F)c(=S)[nH]c2c1	5.01%
O=C(CCc1nc2ccccc2c(=O)[nH]1)NCCN1C(=O)S/C(=C\c2ccccc2Cl)C1=O	5.27%
S=c1[nH]cc(-c2ccccc2)n1-c1ccccc1Cl	9.61%

SMILES	hERG current change (%, negative = inhibition) at 10uM
COc1cc2c(cc1OC)C(c1ccc(N(C)C)cc1)CC(=O)N2 (centres unmarked)	-0.468%
CCN(CC)S(=O)(=O)c1ccc(NC(=O)CCN2C(=O)C3CC=CCC3C2=O)cc1 (centres unmarked)	-30%
Cc1nonc1NC(=O)CSc1nnnn1-c1ccccc1	19.6%
Cc1ccc2oc(NC(=O)N3CCOCC3)cc(=O)c2c1	11.8%
CC(C)(C)NC(=O)C(=O)NCc1ccncc1	11.6%
CCCCCCn1c(=O)c(C(=O)Nc2c(C)n(C)n(-c3ccccc3)c2=O)c(O)c2ccccc21	13.6%
Brc1csc(C=Nc2ccc3c(c2)OCCOCCOCCOCCO3)c1	-73.5%
CCCCCCCc1nc2nc(C)c(Br)c(=O)n2[nH]1	8.38%
O=c1nc(N2CCOCC2)ccn1Cc1ccc(Br)cc1	2.48%
CCCC1=C(C(=O)OCC)C(c2ccccc2OCC)NC(=O)N1C (centres unmarked)	0.962%
COc1ccc(NC(=O)NNC(=O)C(C)Oc2ccc3ccccc3c2)cc1OC (centres unmarked)	-16.2%
C/C(NC(=O)c1ccccc1F)=C1\C(=O)C[C@@H]2[C@H]1C2(C)C	-14.4%
Cc1cccn2c(CN3CCCC(c4ccccc4)C3)c(C(=O)N3CCOCC3)nc12 (centres unmarked)	-68.7%
O=C(CN(Cc1ccc(Br)cc1)S(=O)(=O)c1ccccc1)NCC1CCCO1 (centres unmarked)	-6.72%
CCCCN(C(=O)c1ccc(S(=O)(=O)N(CC)CC)cc1)c1c(N)n(CCC)c(=O)[nH]c1=O	29.5%
O=C(CC12CCC(CC1)C2)NCc1ccc2c(c1)OCO2	1.99%
CCOc1ccc(N=C2SC(C(=O)Nc3ccccc3C#N)C(N)=C2C(=O)Nc2ccc(Cl)cc2)cc1 (centres unmarked)	18.1%
CCOC(=O)c1sc(NC(=O)CN2C(=O)NC3(CCC(C)CC3)C2=O)c(C(=O)OCC)c1C (centres unmarked)	8.78%
CC(C)NCC(O)COCCOc1ccc(C(C)(C)C)cc1.Cl (centres unmarked)	-8.61%
COc1ccc(C(=O)Nc2c3c(nn2-c2ccc(Cl)cc2)CS(=O)(=O)C3)cc1	-6.97%
